From the supplement of paper PMC3334620
In all, about 33,000 sequences were measured (“E-score (-0.5 to 0.5)”: median about -0.053, highest 2% from about 0.37 on). This is one part of the list.

Target: Hap1 (UniProt P0CE41)
Experiment: PBM E-score (8-mer binding enrichment) (E-score (-0.5 to 0.5)); higher = stronger / more preferred TF binding; most listed sequences are background and not binding sites
Conditions: protein concentration: 200 nM; construct: GST-DNA-binding domain
Method in brief: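 Each ungapped eight-base word and its reverse complement, pooled, received an E-score from the Universal PBM Analysis Suite. Underlying scans, normalised with masliner, recorded fluorescent anti-GST bound to GST-tagged yeast transcription factors. These were applied at about 100-200 nM to universal all-10-mer Agilent arrays double-stranded by primer extension.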

Sequence of UniProt P0CE41 (P0CE41 whole entry): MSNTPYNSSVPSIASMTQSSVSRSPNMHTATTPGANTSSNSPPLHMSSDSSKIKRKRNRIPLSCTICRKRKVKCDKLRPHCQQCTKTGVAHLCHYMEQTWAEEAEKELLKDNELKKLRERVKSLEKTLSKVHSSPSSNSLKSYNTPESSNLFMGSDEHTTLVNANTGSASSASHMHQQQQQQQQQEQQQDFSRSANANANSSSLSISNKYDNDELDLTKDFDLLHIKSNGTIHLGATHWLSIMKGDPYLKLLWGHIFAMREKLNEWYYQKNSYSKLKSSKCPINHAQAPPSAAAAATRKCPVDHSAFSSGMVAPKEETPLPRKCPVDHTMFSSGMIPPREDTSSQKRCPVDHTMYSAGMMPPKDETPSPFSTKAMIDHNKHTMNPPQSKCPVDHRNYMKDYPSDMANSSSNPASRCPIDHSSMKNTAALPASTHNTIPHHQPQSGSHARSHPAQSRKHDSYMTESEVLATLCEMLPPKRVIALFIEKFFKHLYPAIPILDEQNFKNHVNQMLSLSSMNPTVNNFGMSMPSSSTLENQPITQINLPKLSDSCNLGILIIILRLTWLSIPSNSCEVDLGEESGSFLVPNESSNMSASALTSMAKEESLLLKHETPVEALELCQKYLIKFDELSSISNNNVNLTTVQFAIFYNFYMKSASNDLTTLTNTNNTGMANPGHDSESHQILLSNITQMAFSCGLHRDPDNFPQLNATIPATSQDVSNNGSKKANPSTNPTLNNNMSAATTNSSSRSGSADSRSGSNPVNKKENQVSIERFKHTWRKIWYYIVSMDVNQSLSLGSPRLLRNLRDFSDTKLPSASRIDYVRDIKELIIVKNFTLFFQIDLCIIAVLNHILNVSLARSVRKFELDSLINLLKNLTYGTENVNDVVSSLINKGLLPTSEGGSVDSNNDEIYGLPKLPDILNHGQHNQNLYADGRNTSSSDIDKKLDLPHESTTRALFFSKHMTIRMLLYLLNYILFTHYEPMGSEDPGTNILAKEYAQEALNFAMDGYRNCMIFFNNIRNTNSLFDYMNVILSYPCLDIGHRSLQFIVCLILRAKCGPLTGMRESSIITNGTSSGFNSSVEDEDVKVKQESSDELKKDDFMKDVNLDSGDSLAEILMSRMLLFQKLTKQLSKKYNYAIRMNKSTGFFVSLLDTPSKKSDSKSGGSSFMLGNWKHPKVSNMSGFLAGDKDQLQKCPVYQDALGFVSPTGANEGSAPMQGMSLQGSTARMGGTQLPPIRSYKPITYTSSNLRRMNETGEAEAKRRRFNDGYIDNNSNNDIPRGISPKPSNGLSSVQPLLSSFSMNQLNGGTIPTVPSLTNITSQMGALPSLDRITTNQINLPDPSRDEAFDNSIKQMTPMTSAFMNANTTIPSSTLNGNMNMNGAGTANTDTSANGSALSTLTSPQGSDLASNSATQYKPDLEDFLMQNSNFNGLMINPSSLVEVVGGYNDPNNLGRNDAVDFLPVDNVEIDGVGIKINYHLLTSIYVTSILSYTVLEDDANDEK

| Sequence | PBM E-score |
| --- | --- |
| AATTCAGG | 0.049 |
| CTCACAAA | -0.0838 |
| AATCAATG | -0.0446 |
| GGTGCTAA | 0.156 |
| GTGTGAGA | -0.197 |
| AATCTACG | 0.0904 |
| TAACAATA | -0.0812 |
| CAGTGTAC | -0.267 |
| CCAACAAC | -0.106 |
| AAGCGCCG | 0.31 |
| GATCTTGA | -0.183 |
| GGACGAAA | 0.273 |
| CCTCTACA | -0.219 |
| AAAGTTGA | -0.192 |
| ATGTTTGG | -0.111 |
| AGGCTCAC | -0.263 |
| CTTCGGAA | 0.403 |
| ATACTTCG | 0.108 |
| GACCCCCC | -0.13 |
| AGCATTTC | -0.0617 |
| CACTTAAA | -0.109 |
| TAAAAGCA | -0.0225 |

| Sequence | PBM E-score |
| --- | --- |
| AGAATAAT | -0.212 |
| TCTTGGAA | -0.163 |
| AGGCCACC | -0.0824 |
| CATAATAC | -0.197 |
| CAGATATG | 0.0423 |
| ATTCTAGC | -0.151 |
| TCAAAGAA | -0.264 |
| GTGGGTTA | -0.0914 |
| GCCATGCC | 0.0116 |
| GCATTGGA | -0.0858 |
| GAAGGGTA | -0.0884 |
| ATACTAAT | 0.0383 |
| ATGTGGGC | -0.135 |
| CATTACGC | 0.196 |
| ACGGACGG | 0.244 |
| CGATAGGA | 0.307 |
| CACAGCTA | -0.154 |
| AATCCCAC | 0.0469 |
| GCTCCAGA | -0.123 |
| CCCCAGCC | -0.0737 |
| CGTCGCCC | 0.00024 |
| CAGGTGGG | -0.0119 |

| Sequence | PBM E-score |
| --- | --- |
| CAAGATAC | -0.12 |
| ATAAGCAT | -0.149 |
| ATGTATAA | -0.144 |
| ATGGAAGA | -0.0903 |
| AAGCGATG | -0.0584 |
| GGAGATTA | 0.31 |
| GAAAACAA | -0.0224 |
| TGGGCCAA | -0.117 |
| AGCCGACA | 0.133 |
| CTATCTCC | 0.358 |
| CGGTGATC | 0.26 |
| TGAACGCA | -0.176 |
| AATCTTCG | 0.0766 |
| AATCCTCC | 0.106 |
| ACGGCTGA | -0.0931 |
| CCTTCTTC | -0.12 |
| AGCGACAC | -0.0119 |
| AACTGTCG | -0.058 |
| ATGCAGTG | -0.169 |
| AATTCGCT | 0.0644 |
| AGCGTGAG | -0.268 |
| ACCTTCCA | -0.0446 |

| Sequence | PBM E-score |
| --- | --- |
| AGGGCTTA | -0.203 |
| ACGACCTA | -0.107 |
| GGACTCCC | 0.0888 |
| AAATACAG | -0.147 |
| GATATGAC | 0.194 |
| AATGTGGT | -0.0583 |
| CGGACTCA | 0.347 |
| TAACAAGA | -0.0971 |
| AATAACCC | 0.19 |
| CTCTATAC | -0.191 |
| AGCGCTAA | 0.0794 |
| AAGTTAAG | -0.0352 |
| ATTAGTGG | -0.0345 |
| ACCGTTTA | 0.138 |
| AGACCTAA | -0.227 |
| CAATCCCC | 0.17 |
| TCTAGAAA | -0.18 |
| TAATACGA | -0.0705 |
| AGTCTACA | -0.195 |
| AGGGGGCG | -0.219 |
